Results reported in PMC12136788.
The list shows a part of the results.

T1: UNK ZnF1-3 (human, UniProt Q9C0B0 31-174)
T1 sequence: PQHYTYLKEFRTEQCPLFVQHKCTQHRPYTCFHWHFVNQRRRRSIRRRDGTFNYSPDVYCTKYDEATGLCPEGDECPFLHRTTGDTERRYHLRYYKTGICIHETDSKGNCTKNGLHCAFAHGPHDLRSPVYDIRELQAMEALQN

B1: chr6:79679595:79679596:-_ENSG00000146247_ENST00000275034|hu_mus|FALSE|FALSE (ssRNA)
RNA: GGGAGUUCUACAGUCCGACGAUCUAUAUUCCAUCGUCUAUACUUUGCAUCAUCAAAUUGUUGUCUCAAGACUAGAAAAUCUAUGACGUCAGGCAUAUCAUGGUAUUUCAUGGUAAAUGAUCCACCGGUCAGUUUGCCAGUAUCCAACAGAGGAUUGAGCAUCA
B2: chr16:94690093:94690094:+_ENSMUSG00000040785_ENSMUST00000117648|mus_hu|mus_mus_mus_hu_True|68_108 (ssRNA)
RNA: GGGAGUUCUACAGUCCGACGAUCGGGGACUCCUGUGGGACACACAGCCUCGAUUCCAGGGGGAAAAAAAAAUAGCCGAUACUAAUUAAAAAGUGUUAAUGAUUUUUGAAAAUCAGAUUACAUCUAUAAAAGAUGAAAAGCAAACAACAGAGGAUUGAGCAUCA
B3: 64290231_64290351_1254_3pUTR_ENSG00000112245_ENST00000370650|human|control|control (ssRNA)
RNA: GGGAGUUCUACAGUCCGACGAUCACUGCAUGAUUUGGGGAAAGGUCAAUUGAUACAAAUGACAAGCACAUUUUAUAUGCUGACAGCAAGAAUCUUUUGCCAAGUAUCCAAAUAGGUUGACUGUAACCCAAAUACAGAGGUUGCCAACAGAGGAUUGAGCAUCA
B4: chr2:47389482:47389483:-_ENSG00000143933_ENST00000272298|hu_hu|FALSE|FALSE (ssRNA)
RNA: GGGAGUUCUACAGUCCGACGAUCUUCUGCAGCACUAAUAUAGCCAUUGCCAUCCUUAUCAAACACACGGAAUGCUUCUCUAAUUUCUUCUUCACUGUCUGUGUCUUUCAUUUUUCUUGCCAUCAUUGUCAGAAAUUCAGGGAACAACAGAGGAUUGAGCAUCA
B5: chr2:35037708:35037709:-_ENSMUSG00000026878_ENSMUST00000028238|mus_mus|FALSE|FALSE (ssRNA)
RNA: GGGAGUUCUACAGUCCGACGAUCUUACAAGAGUUGUUUUUUCUUUUUUCUUUUUUUAAUUAAACCCAGUAAGAUGUACAGAAGACAAGGAGGCAGUAAAAAGUACUGCUUCCAACAGACAGAGGUGAAAGGUCAAAUGAGGGGCAACAGAGGAUUGAGCAUCA
B6: chr1:174129369:174129370:-_ENSMUSG00000013698_ENSMUST00000013842|mus_hu|FALSE|FALSE (ssRNA)
RNA: GGGAGUUCUACAGUCCGACGAUCACGGGUUCUGUAGUCAACCACCAUAGUGAGUAGGUCAGGACGGCGGGAGAUCUCAAAGAUGUGCUCAAUGUAGGAGAGGUUGUCUUUGUCCAGCUUGUUGUGGCUCUCCAGGAAGCUAAACAACAGAGGAUUGAGCAUCA
B7: chr1:220369670:220369671:-_ENSG00000118873_ENST00000358951|hu_hu|FALSE|FALSE (ssRNA)
RNA: GGGAGUUCUACAGUCCGACGAUCGAAGCCAGUAAAUGGAUUGGACCCUACAGUGAUAUACUGAGACAUGGCAGGUGGACUAUUUUUAAUUGCUGCAUUAAAUCCACCUAUAUUGGAGGCAGUCUUCAUUUGAUCAAAGGGGGACAACAGAGGAUUGAGCAUCA
B8: chrX:109746815:109746816:+_ENSMUSG00000025529_ENSMUST00000071814|perfect_dup|motif|central (ssRNA)
RNA: GGGAGUUCUACAGUCCGACGAUCUGUUUUAAAGUCACAGUGCCUGCACUGAUGAAUCUUCCUACCCUUAUGGAUAUCACGGUGCUUUUUGAGCUCAGAAGGACGAUGAAAACCUUUAUCACAGACCUCACAUUUGUGAGGAAACAACAGAGGAUUGAGCAUCA
B9: chr1:60041781:60041782:+_ENSMUSG00000041040_ENSMUST00000036540|mus_hu|mus_mus_mus_hu_False|68_108 (ssRNA)
RNA: GGGAGUUCUACAGUCCGACGAUCAAGAGGAGUGAAUUAAAGUAAAUGCAGUAGUGGCAAAUUUUCUUUACUUUAGUUUCACAAAAGAAAAUCUUUAUAACCCAGUCCUAGUCUUGGACAUAGUGAAAGCUAUAAAUUCUGACUCAACAGAGGAUUGAGCAUCA
B10: chr11:77336104:77336105:-_ENSG00000074201_ENST00000525064|hu_mus|hu_hu_hu_mus_False|78_78 (ssRNA)
RNA: GGGAGUUCUACAGUCCGACGAUCCUCACACAUUGCUGUGAACAUCGCCUCCAAUGCUGAUUUAUCACUGGGCACAAAUCGAAAUUCAGAAAUGGGUUCAACAUCAUCAUUGUCUUCCUCAUCUUCAUCAGAGAGAGGUUCUUUCAACAGAGGAUUGAGCAUCA
B11: chr18:52894491:52894492:-_ENSG00000196628_ENST00000354452|hu_hu|FALSE|FALSE (ssRNA)
RNA: GGGAGUUCUACAGUCCGACGAUCAAAAAAAAAAAAUCCAUAUUUACAGUAAAAUCUUUCUUUUAAAAAAGUUAAUCAGUACUAUUUUUUUACAGGAGAAAAAAGUCUGAAACAAAUGAACAAAAGCUUACCAUAGUCACUAAACAACAGAGGAUUGAGCAUCA
B12: chr5:124911765:124911766:+_ENSMUSG00000049327_ENSMUST00000059580|mus_hu|FALSE|FALSE (ssRNA)
RNA: GGGAGUUCUACAGUCCGACGAUCGUGUCUGACAAACACAAGGCCUCGACAGCAGGUCUGGAACUUUCAACCCCAGCAGGAUGAGGGGGAAUGGGGGUGGAUGUCAGGUAAGUAAUUUCUGGUCCCACUACAAAACUUUAUUUUCAACAGAGGAUUGAGCAUCA
B13: chr19:12856456:12856457:+_ENSG00000198356_ENST00000357332|hu_mus|motif|central (ssRNA)
RNA: GGGAGUUCUACAGUCCGACGAUCCACGAUGGUCGGGAAGUUCAGGAGCCUGAGUGUAUGGCCGGUGGGUGCUGUGUCGAACACGGCCACUGAGAAGUUCAUGCCUUUCACCAGCCUCAUGACCUCAGCAUAACUCAUGGCUUCCAACAGAGGAUUGAGCAUCA
B14: chr9:24234919:24234920:-_ENSMUSG00000043067_ENSMUST00000142064|mus_mus|FALSE|FALSE (ssRNA)
RNA: GGGAGUUCUACAGUCCGACGAUCGUAAACCAACUCUCCAUGUUCAAAUUGUUGUUUUCUUGUAUGUGUCCGUUGUUUAGCUACGACACCCCGCAUAUCAUUAAAAAUCUUUCUAACAAUGGCAGCGACGGUGACCAGAACCACCAACAGAGGAUUGAGCAUCA

What follows are binders tested against T1, UNK ZnF1-3 (assay: nsRBNS (natural sequence RNA bind-n-seq); RBNS binding buffer (assumed for nsRBNS): 25 mM Tris pH 7.5, 150 mM KCl, 3 mM MgCl2, 0.01% Triton X-100, 500 ug/ml BSA, 20 U/ml SUPERase-In, 4 C; UNK is unkempt and MSI1 is Musashi-1; names of the RNAs are library labels; protein concentration not given here; high values mean tight binding).

B1 was tested. Which binding signal did it give?
The binding signal was 0.649 enrichment R.

How did the binding signal turn out when B2 was run?
The binding signal was 2.96 enrichment R.

B3 was tested. Which binding signal did it give?
Its binding signal is 1.34 enrichment R.

For B4, which binding signal is on record?
Its binding signal is 0.791 enrichment R.

Which binding signal does the source give for B5 here?
Its binding signal is 1.37 enrichment R.

B6 was tested. Which binding signal did it give?
Its binding signal is 1.01 enrichment R.

Which binding signal does the source give for B7 here?
Its binding signal is 1.45 enrichment R.

With B8 as the binder, how does the binding signal read?
Its binding signal is 0.879 enrichment R.

Which binding signal does the source give for B9 here?
The binding signal was 0.645 enrichment R.

Which binding signal does the source give for B10 here?
The binding signal was 0.879 enrichment R.

B11 was tested. Which binding signal did it give?
The binding signal was 1.38 enrichment R.

Which binding signal does the source give for B12 here?
Its binding signal is 1.27 enrichment R.

For B13, which binding signal is on record?
Its binding signal is 0.533 enrichment R.

Which binding signal does the source give for B14 here?
Its binding signal is 0.819 enrichment R.
